# ± gives the standard deviation of the averaged measurements. Over roughly 33,000 sequences, “E-score (dimensionless, -0.5 to 0.5)” has its median near -0.046; the highest 2% begin near 0.36. Some of the results follow.
# Tested on: T1, SpTbr T-box DNA-binding domain (GST fusion)
# T1 sequence: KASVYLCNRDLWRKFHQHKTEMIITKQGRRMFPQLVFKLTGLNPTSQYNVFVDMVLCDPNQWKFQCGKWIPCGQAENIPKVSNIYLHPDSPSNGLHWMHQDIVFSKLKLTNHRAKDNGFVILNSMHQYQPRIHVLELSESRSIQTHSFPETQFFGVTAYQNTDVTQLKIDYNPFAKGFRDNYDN
# Assay: PBM E-score of 8-mer (E-score (dimensionless, -0.5 to 0.5)); Tbr is Tbrain of the sea star Patiria miniata (Pm) or the sea urchin Strongylocentrotus purpuratus (Sp); higher = stronger binding preference; most listed sequences are background and not binding sites
# Settings: the construct has about 5 more residues each side
# In short: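 Universal Agilent oligonucleotide arrays, made double-stranded by primer extension, were incubated with 200 nM GST-fused Tbr T-box DNA-binding domain in PBS (pH 7.5). The protein was expressed in BL21 E. coli at 20 °C and purified by glutathione affinity chromatography. After scanning and quantification, the Universal PBM Analysis Suite assigned an enrichment E-score to each ungapped 8-mer, averaged over duplicate arrays.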
row,Sequence,PBM E-score of 8-mer
1,GATGACCA,0.0254 ± 0.0096
2,ATTGACTC,-0.0992 ± 0.08
3,ATGTTCGA,-0.129 ± 0.03
4,GTCAGGGA,-0.23 ± 0.047
5,AGCATAAC,-0.0666 ± 0.0083
6,GCTCGGTA,-0.159 ± 0.081
7,TACGGATA,-0.182 ± 0.13
8,GAATTGGC,-0.065 ± 0.0065
9,ATAAACAT,-0.0537 ± 0.084
10,GTATGCAA,-0.124 ± 0.037
11,ACCGTGTA,0.056 ± 0.098
12,CAATCCAC,0.0665 ± 0.047
13,TAAGCTGA,-0.159 ± 0.038
14,AACCGGTA,0.000605 ± 0.066
15,TAACCTAA,0.0477 ± 0.014
16,CTGAAGAA,-0.0918 ± 0.044
17,CTCACCAC,0.218 ± 0.037
18,TCATATAA,-0.186 ± 0.029
19,TAAATTCA,-0.13 ± 0.022
20,CCACCAGA,0.0229 ± 0.0042
21,GTACATCA,-0.0824 ± 0.041
22,ATCGAATA,-0.123 ± 0.066
23,AGCTGCCT,0.13 ± 0.093
24,CTCTAGAA,-0.0987 ± 0.035
25,GGGAGAGA,0.00894 ± 0.011

row,Sequence,PBM E-score of 8-mer
1,CCTTGGGC,-0.00559 ± 0.0056
2,AGCTTTAG,-0.0752 ± 0.035
3,ACGGTCCG,0.0727 ± 0.023
4,GGGCACAA,-0.0396 ± 0.039
5,GTCGAAGA,-0.15 ± 0.016
6,CGACGTAC,-0.0864 ± 0.048
7,CGTAGACG,-0.122 ± 0.051
8,AACAACTC,0.175 ± 0.03
9,CGCCCTAC,-0.0178 ± 0.022
10,GCGTGTAA,0.0697 ± 0.022
11,ATATGAGA,-0.13 ± 0.05
12,CCCATTAG,-0.151 ± 0.021
13,ACTAATTG,0.0139 ± 0.029
14,GAACGTGC,0.0826 ± 0.055
15,ACGTCGAG,0.0316 ± 0.0028
16,GAGAGTGC,0.235 ± 0.029
17,CGTGCAAA,0.146 ± 0.024
18,GGCAAACA,0.0235 ± 0.096
19,CCAGATCC,0.0296 ± 0.0035
20,CGACTGCA,-0.155 ± 0.0016
21,AACCGACT,-0.05 ± 0.035
22,AACAAACC,-0.0382 ± 0.015
23,AGTGACTA,0.0892 ± 0.051
24,ACAGATGC,0.0542 ± 0.079
25,AGGCCATG,-0.322 ± 0.048

row,Sequence,PBM E-score of 8-mer
1,GCAAAAAC,0.158 ± 0.023
2,CTCAAGAC,-0.173 ± 0.049
3,ACCTATAG,-0.0484 ± 0.021
4,TCAGTAAA,-0.113 ± 0.0082
5,CCTCATAC,0.00052 ± 0.034
6,CGCCGCGA,0.199 ± 0.049
7,GTTAACTA,0.1499 ± 0.001
8,CGTCCCAA,-0.179 ± 0.025
9,CTCACCCC,0.304 ± 0.027
10,CATCTCCC,-0.128 ± 0.05
11,ATGGCCAC,-0.0988 ± 0.0035
12,TAAGAGGA,-0.0506 ± 0.021
13,ATGAAAAT,-0.017 ± 0.05
14,CAGTTCAG,-0.2217 ± 0.0013
15,AAAATTAC,0.0569 ± 0.024
16,AAGGCGAG,0.3214 ± 0.0018
17,GTTGAAAA,0.0433 ± 0.018
18,CCGTCTAA,-0.29 ± 0.029
19,CTGTAAGA,-0.0227 ± 0.0078
20,AACGGACT,0.013 ± 0.0058
21,ACGGCACA,0.06003 ± 7.8e-05
22,ACATCCAA,0.0357 ± 0.0079
23,GTCCTCCA,-0.0942 ± 0.066
24,GTTTATTA,-0.189 ± 0.087
25,ATCGGAAG,-0.0552 ± 0.027

row,Sequence,PBM E-score of 8-mer
1,TAATAGTA,-0.19 ± 0.028
2,CCTAGGAG,-0.0464 ± 0.051
3,GGGCGGAA,-0.23 ± 0.02
4,CCGATCAA,0.0887 ± 0.014
5,GGATGAAC,-0.09 ± 0.072
6,CCCTAAAA,0.00853 ± 0.054
7,GTCGGCCA,-0.0885 ± 0.016
8,ACCAAGCG,0.162 ± 0.011
9,CCAGACTA,-0.319 ± 0.012
10,TACATGTA,-0.244 ± 0.085
11,CCCCCCAC,-0.243 ± 0.031
12,CCAATTAG,0.06 ± 0.0055
13,ATGGGACC,-0.181 ± 0.037
14,AGTAACAC,0.3552 ± 0.0029
15,CTCGGGAA,-0.0453 ± 0.049
16,CTAGCGCA,-0.0724 ± 0.049
17,CAGAGCTA,-0.37 ± 0.028
18,AAAAGATT,-0.183 ± 0.048
19,CGCACAAG,0.0889 ± 0.0094
20,CAATACAA,-0.243 ± 0.0065
21,GGTGCCTA,0.0923 ± 0.1
22,CACATTTC,0.316 ± 0.055
23,CAGGGAGC,-0.115 ± 0.055
24,CATAACTA,-0.0516 ± 0.013
25,GAGGAGAA,-0.133 ± 0.018

row,Sequence,PBM E-score of 8-mer
1,CGGGTACG,-0.126 ± 0.037
2,CTTAGCCA,0.0171 ± 0.014
3,CTCAGTGC,-0.00873 ± 0.043
4,ACGAAGAG,-0.0962 ± 0.029
5,AGAGCTAA,-0.0488 ± 0.023
6,CCGGATGC,-0.0834 ± 0.055
7,AAGGAGAA,-0.247 ± 0.045
8,ATACTCTG,-0.126 ± 0.019
9,ATAGTTGA,-0.0287 ± 0.0013
10,ACCCAACA,0.139 ± 0.025
11,CTTGATTC,-0.0753 ± 0.011
12,ATCTAATC,-0.0658 ± 0.017
13,ACAGAAGG,0.09 ± 0.084
14,CTTGAGTA,-0.142 ± 0.079
15,CTAGTAAG,-0.0912 ± 0.035
16,ACGCTACT,0.0962 ± 0.058
17,ATTTATAA,-0.00806 ± 0.035
18,CAGGCAGC,-0.0447 ± 0.042
19,AGATCATC,0.0451 ± 0.065
20,ACAGCCTG,0.0918 ± 0.017
21,CGGCACAC,0.188 ± 0.01
22,CATGATGG,-0.123 ± 0.0069
23,GAAGCAGC,-0.131 ± 0.072
24,AGGTAGCC,-0.254 ± 0.054
25,CATCGGCC,-0.26 ± 0.0059

row,Sequence,PBM E-score of 8-mer
1,CATATTGC,0.0771 ± 0.014
2,ATTGTTGA,0.196 ± 0.0023
3,AAGTAGTG,0.183 ± 0.041
4,ATAACACA,0.35 ± 0.028
5,ATGCAAGC,-0.131 ± 0.037
6,GGTAGCAA,0.139 ± 0.031
7,AGTTAGAC,-0.231 ± 0.018
8,ATAGATCA,-0.181 ± 0.016
9,AGTCAGAA,-0.163 ± 0.029
10,CTGGCAAC,0.197 ± 0.02
11,TATCTAGA,-0.0961 ± 0.074
12,AAGTAATG,0.00825 ± 0.0022
13,ATGTGGCA,0.2551 ± 0.0021
14,AGTTCGCC,0.0613 ± 0.039
15,AATGCTAG,-0.09 ± 0.015
16,CGGACGGC,-0.157 ± 0.075
17,AAGCGATA,0.2613 ± 0.002
18,CGGAGATC,-0.163 ± 0.018
19,CAACTCTA,-0.0379 ± 0.031
20,GTCAATAA,0.129 ± 0.034
21,TATGATGA,-0.0739 ± 0.059
22,ACCTTATG,0.054 ± 0.036
23,CGCTACAA,0.107 ± 0.069
24,GCGGGCGA,-0.0188 ± 0.08
25,AAGTTTTG,-0.0157 ± 0.057

row,Sequence,PBM E-score of 8-mer
1,CGAAACGA,0.161 ± 0.0022
2,CAGTCGGA,-0.0497 ± 0.079
3,AGATCTAC,-0.0366 ± 0.077
4,ATAGATGC,-0.00715 ± 0.049
5,GACCCGTA,-0.0138 ± 0.012
6,CTGAGTGC,0.0208 ± 0.023
7,CTACTAAA,-0.136 ± 0.022
8,CTTGGTTA,-0.192 ± 0.076
9,CCGGGCCA,-0.207 ± 0.05
10,GTAAAGCA,-0.157 ± 0.021
11,ATAAATAC,0.0531 ± 0.074
12,CGACTCCG,0.0313 ± 0.055
13,TGGGCAAA,0.0144 ± 0.028
14,AAATAATC,0.0658 ± 0.044
15,ACGCGTTC,0.181 ± 0.086
16,AAAGCGCA,-0.0207 ± 0.1
17,CTAAAATA,-0.0993 ± 0.05
18,GAGCCATC,-0.0309 ± 0.039
19,CCACGAAA,0.0171 ± 0.1
20,CCCTCCCG,-0.191 ± 0.053
21,CATGCCAA,-0.0456 ± 0.096
22,ATGAAAGA,0.0262 ± 0.0019
